Data on 29 molecules can be found in the antibiotic and cytotoxicity screens of Wong et al. (2023).

The list shows a part of the results.

Experiment [1] has as its system HSkMC (human skeletal muscle cells). In words: cytotoxicity call (relative viability < 0.9). Conditions: 10 µM.
For experiment [2], the system named is S. aureus RN4220. In words: growth inhibition call (relative growth <= 0.2). The conditions noted are these: 50 µM.

For `Nc1nc(Cl)nc(Cl)n1`, the cytotoxicity call in experiment [1] was “inactive”. Besides, the growth inhibition call in experiment [2] was “inactive”.
As for `CC(C)C(C)C=CC(C)C1CCC2C3=CC=C4CC(O)CCC4(C)C3CCC21C` (stereo not drawn), the cytotoxicity call in experiment [1] is “inactive”. Also, in experiment [2], the growth inhibition call is “inactive”.
Take `O=C(C[C@H]1CC[C@@H]2[C@H](COC[C@H](O)CN2C(=O)C2CC2)O1)NCc1ccncc1`: the cytotoxicity call in experiment [1] was “inactive”. Further, the growth inhibition call in experiment [2] is “inactive”.
With `C=CCOC(=O)[C@H]1[C@@H]2C(=O)O[C@@H](c3ccccc3)[C@@H](c3ccccc3)N2[C@@H](c2ccc(OCCOC(=O)[C@H]3C[C@H]4C(=O)N[C@@H](Cc5ccccc5)C(=O)N4[C@H]3c3ccc(O)cc3)cc2)[C@]12C(=O)Nc1ccc(I)cc12`, the cytotoxicity call in experiment [1] was “inactive”. Also, the growth inhibition call in experiment [2] is “inactive”.
Turning to `CC(C)(C)[S@@](=O)N1Cc2cc(C(=O)N3CCc4ccccc4C3)nc(-c3cccc(-c4cncnc4)c3)c2[C@H]1CCO`, the cytotoxicity call in experiment [1] is “inactive”. For the same molecule, the growth inhibition call in experiment [2] was “inactive”.
As to `COc1ccc(NC(=O)Nc2ccc3c(c2)[C@H]2C[C@H](CC(=O)N4CCN(C)CC4)O[C@H](CO)[C@H]2O3)cc1`, in experiment [1], the cytotoxicity call was “inactive”. Also, in experiment [2], the growth inhibition call is “inactive”.
With `O=C(NC1CC1)[C@@H]1c2ccccc2C(=O)N(Cc2cc(C(F)(F)F)cc(C(F)(F)F)c2)[C@H]1c1ccc(CO)cc1`, the cytotoxicity call in experiment [1] was “inactive”. Also, the growth inhibition call in experiment [2] is “inactive”.
Regarding `C[C@H]1CN([C@@H](C)CO)S(=O)(=O)c2ccc(C#Cc3ccccc3F)cc2O[C@@H]1CN(C)C(=O)c1ccc2c(c1)OCO2`, the cytotoxicity call in experiment [1] is “inactive”. Moreover, the growth inhibition call in experiment [2] is “inactive”.
Turning to `C[C@H](CO)N1C[C@H](C)[C@@H](CN(C)C(=O)NC2CCCCC2)Oc2ccc(NC(=O)Cn3cnnn3)cc2C1=O`, the cytotoxicity call in experiment [1] was “inactive”. In experiment [2], the growth inhibition call is “inactive”.
For `C[C@@H]1CN([C@H](C)CO)C(=O)Cc2cc(NC(=O)C3CCCCC3)ccc2O[C@@H]1CN(C)Cc1ccc(Oc2ccccc2)cc1`, in experiment [1], the cytotoxicity call is “active”. The growth inhibition call in experiment [2] was “inactive”.
`C[C@H](CO)N1C[C@H](C)[C@@H](CN(C)Cc2ccc(Cl)c(Cl)c2)Oc2c(NC(=O)Nc3ccc(F)cc3)cccc2C1=O`: the cytotoxicity call in experiment [1] is “active”. Also, in experiment [2], the growth inhibition call is “inactive”.
Consider `C[C@@H]1CN([C@H](C)CO)C(=O)c2cc(NC(=O)C3CCCCC3)ccc2O[C@@H](C)CCCCO[C@H]1CN(C)C(=O)c1ccncc1`, for which, in experiment [1], the cytotoxicity call was “inactive”. In addition, in experiment [2], the growth inhibition call is “inactive”.
Take `COc1ccc(-c2coc3c(OC)c(OC)cc(O)c3c2=O)cc1`: the cytotoxicity call in experiment [1] was “inactive”. In experiment [2], the growth inhibition call is “inactive”.
On to `Cc1ccc(S(=O)(=O)Nc2cccc3c2O[C@@H](CN(C)C(=O)Nc2cccc4ccccc24)[C@H](C)CN([C@@H](C)CO)C3=O)cc1`, for which the cytotoxicity call in experiment [1] was “inactive”. Further, the growth inhibition call in experiment [2] is “inactive”.
As for `COc1ccc(CN(C)C[C@@H]2OCCCC[C@H](C)Oc3ccc(NC(=O)Nc4ccc(OC)cc4)cc3C(=O)N([C@H](C)CO)C[C@@H]2C)cc1`, the cytotoxicity call in experiment [1] was “inactive”. Besides, the growth inhibition call in experiment [2] is “inactive”.
Take `C[C@H]1CN([C@@H](C)CO)C(=O)c2cc(C#Cc3ccc(F)cc3)cnc2O[C@H]1CN(C)Cc1ccccn1`: the cytotoxicity call in experiment [1] is “inactive”. Also, the growth inhibition call in experiment [2] is “inactive”.
On to `CC(C)N1CC=C[C@@]23O[C@@H]4C=CCOC(=O)[C@@H]4[C@H]2C(=O)N(CCCCCO)[C@@H]3C1=O`, for which, in experiment [1], the cytotoxicity call was “inactive”. Also, the growth inhibition call in experiment [2] is “inactive”.
Consider `O=C(/C=C/c1ccc(O)c(O)c1)O[C@@H]1C[C@](O)(C(=O)O)C[C@@H](O)[C@H]1O`, for which the cytotoxicity call in experiment [1] was “inactive”. In experiment [2], the growth inhibition call is “inactive”.
As for `N=C(NO)NCC[C@H](N)C(=O)O`, the cytotoxicity call in experiment [1] is “inactive”. The growth inhibition call in experiment [2] is “inactive”.
For the molecule `COc1ccc(S(=O)(=O)N(C)C[C@H]2OCCCC[C@H](C)Oc3ccc(NC(=O)c4ccccc4)cc3C(=O)N([C@H](C)CO)C[C@H]2C)cc1`, the cytotoxicity call in experiment [1] was “inactive”. Besides, the growth inhibition call in experiment [2] is “inactive”.
For the molecule `C[C@H]1CC=CC[C@H](c2ccc3c(c2)OCO3)NC(=O)[C@@H](Cc2ccccc2)N(C)C(=O)c2ccccc2O1`, in experiment [1], the cytotoxicity call was “active”. In addition, in experiment [2], the growth inhibition call was “inactive”.
On the same counts, the results for `C[C@@H]1CCCCO[C@@H](CN(C)C(=O)CCCN(C)C)[C@@H](C)CN([C@H](C)CO)C(=O)c2cc(NS(C)(=O)=O)ccc2O1` are “inactive” and “inactive”.
With `Cc1ccc(S(=O)(=O)Nc2ccc3c(c2)C(=O)N([C@@H](C)CO)C[C@H](C)[C@H](CN(C)C(=O)Nc2cccc4ccccc24)OCCCC[C@H](C)O3)cc1`, in experiment [1], the cytotoxicity call was “inactive”. The growth inhibition call in experiment [2] was “inactive”.
As for `Cc1c(N2CCCC2)cc2c(c1-n1cccc1)C(C)(C)CC2(C)C`, the cytotoxicity call in experiment [1] was “inactive”. The growth inhibition call in experiment [2] was “inactive”.
With `C=C(C)C1CCC2(C(=O)O)CCC3(C)C(CCC4C5(C)CCC(O)C(C)(C)C5CCC43C)C12` (stereo not drawn), the cytotoxicity call in experiment [1] is “inactive”. Besides, the growth inhibition call in experiment [2] is “inactive”.
Regarding `O=C(C[C@H]1CC[C@H]2[C@@H](COC[C@H](O)CN2Cc2cc(F)ccc2F)O1)N[C@@H]1CCN(Cc2ccccc2)C1`, the cytotoxicity call in experiment [1] was “inactive”. In addition, the growth inhibition call in experiment [2] was “inactive”.
On to `COCC(=O)N1C[C@@H](C)[C@@H](OC)CN(C)C(=O)c2ccc(NC(=O)c3ccc(F)cc3)cc2OC[C@H]1C`, for which the cytotoxicity call in experiment [1] is “inactive”. In addition, the growth inhibition call in experiment [2] was “inactive”.
In the case of `C[C@H]1CN([C@@H](C)CO)C(=O)c2cc(NS(=O)(=O)c3ccc(F)cc3)ccc2O[C@@H]1CN(C)C(=O)Nc1ccc(C(F)(F)F)cc1`, the cytotoxicity call in experiment [1] was “inactive”. For the same molecule, the growth inhibition call in experiment [2] was “inactive”.
Regarding `C[C@H](CO)N1C[C@H](C)[C@@H](CN(C)S(=O)(=O)c2ccc(Cl)cc2)OCCCC[C@H](C)Oc2ccc(NS(=O)(=O)c3ccc(F)cc3)cc2C1=O`, the cytotoxicity call in experiment [1] was “inactive”. Also, in experiment [2], the growth inhibition call was “inactive”.
